Results as given in the supplement of paper PMC9446081.
Among all 39,000 compounds or so, about 220 (0.56%) showed activity. The list shows a part of the results.

The molecules below were run on Escherichia coli K-12 BW25113 (assay: relative growth (OD600 normalised to plate interquartile mean) (fraction); higher = less growth inhibition, active = 0.2 or less). Details: 50 µM; LB; incubation time: overnight (16-24 h).
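Further: static incubation at 37 °C against the wild-type strain, values averaged over two biological replicates.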

Row | Compound | relative growth
1 | C[C@H]1CN([C@@H](C)CO)C(=O)c2cc(-c3cncnc3)cnc2O[C@H]1CN(C)C(=O)CN1CCOCC1 | inactive: 0.976
2 | COc1ccc(C#Cc2ccc([C@@H]3[C@H]4CN(S(=O)(=O)c5cn(C)cn5)CCCCN4[C@H]3CO)cc2)cc1 | inactive: 1
3 | CNC(=O)[C@H]1C[C@@H]2CCN(C(=O)N(C)C)C[C@H]2O1 | inactive: 1.02
4 | COc1cccc(S(=O)(=O)N(C)C[C@@H]2Oc3ncc(C#Cc4cccc(F)c4)cc3C(=O)N([C@H](C)CO)C[C@@H]2C)c1 | inactive: 1.02
5 | C[C@H]1CN([C@@H](C)CO)C(=O)c2cc(C#Cc3ccc(F)cc3)cnc2O[C@@H]1CN(C)CC1CCOCC1 | inactive: 0.981
6 | C[C@@H]1CN([C@H](C)CO)C(=O)c2cc(NC(=O)Nc3ccc(F)cc3)ccc2O[C@@H](C)CCCCO[C@@H]1CN(C)Cc1ccc2c(c1)OCO2 | inactive: 1.04
7 | C[C@@H]1CCCCO[C@H](CN(C)C(=O)Nc2ccc3c(c2)OCO3)[C@@H](C)CN([C@@H](C)CO)C(=O)c2cc(NC(=O)CCC(F)(F)F)ccc2O1 | inactive: 0.989
8 | C[C@H](CO)N1C[C@H](C)[C@H](CN(C)CC2CCOCC2)Oc2cc(Br)ccc2S1(=O)=O | inactive: 1
9 | COCC#Cc1ccc2c(c1)O[C@H](CN(C)C(=O)C1CCOCC1)[C@H](C)CN([C@H](C)CO)S2(=O)=O | inactive: 1
10 | C[C@@H]1CN([C@H](C)CO)C(=O)c2cc(NC(=O)Cc3ccccc3)ccc2O[C@@H](C)CCCCO[C@H]1CN(C)C(=O)Nc1ccc2c(c1)OCO2 | inactive: 1.02
11 | C[C@H]1CN([C@@H](C)CO)C(=O)Cc2cc(NC(=O)Nc3ccc(C(F)(F)F)cc3)ccc2O[C@@H]1CN(C)C(=O)Nc1ccc(C(F)(F)F)cc1 | inactive: 1.02
12 | C[C@@H]1CN([C@@H](C)CO)C(=O)c2cccc(NC(=O)NC3CCCCC3)c2O[C@@H]1CN(C)Cc1ccc(Cl)c(Cl)c1 | inactive: 1
13 | Cc1ccc(S(=O)(=O)Nc2ccc3c(c2)C(=O)N([C@H](C)CO)C[C@H](C)[C@@H](CN(C)C(=O)Nc2ccc4c(c2)OCO4)OCCCC[C@H](C)O3)cc1 | inactive: 1.04
14 | CC(Cc1ccc(O)c(O)c1)C(C)Cc1ccc(O)c(O)c1 (stereo not given) | inactive: 0.979
15 | C[C@@H]1CN([C@H](C)CO)C(=O)c2cc(NC(=O)Nc3ccc4c(c3)OCO4)ccc2O[C@@H](C)CCCCO[C@H]1CN(C)Cc1ccncc1 | inactive: 1
16 | C[C@@H]1CCCCO[C@@H](CN(C)C(=O)C2CCCCC2)[C@@H](C)CN([C@H](C)CO)C(=O)c2cc(NC(=O)C3CCCCC3)ccc2O1 | inactive: 1.03
17 | O=C(O)CCN1C(=O)[C@@H]2[C@@H](C1=O)[C@@H]1C=C[C@@H]2C1 | inactive: 1.02
18 | COc1ccc(S(=O)(=O)N[C@H]2CC[C@@H](CC(=O)N3CCN(c4ccccc4)CC3)O[C@H]2CO)cc1 | inactive: 1.02
19 | C[C@@H]1CN([C@H](C)CO)C(=O)c2cc(NC(=O)Nc3ccccc3)ccc2O[C@@H](C)CCCCO[C@H]1CN(C)Cc1ccc(C(F)(F)F)cc1 | inactive: 0.969
20 | CC1(C)c2nc(-c3ccc(F)cc3)c(Nc3ccc(F)cc3)n2CCN1C(=O)CN | inactive: 0.999

Row | Compound | relative growth
21 | C[C@H]1CN([C@@H](C)CO)C(=O)c2cccc(NC(=O)Nc3ccc(F)cc3)c2O[C@H]1CN(C)Cc1ccc(-c2ccccc2)cc1 | inactive: 0.896
22 | COc1ccc(S(=O)(=O)N(C)C[C@H]2Oc3c(NC(=O)c4cc(C)nn4C)cccc3C(=O)N([C@@H](C)CO)C[C@@H]2C)cc1 | inactive: 0.978
23 | COc1ccc(NC(=O)N(C)C[C@H]2Oc3ccc(NS(=O)(=O)c4c(C)noc4C)cc3CC(=O)N([C@@H](C)CO)C[C@@H]2C)cc1 | inactive: 1.03
24 | Cc1ccc(S(=O)(=O)N(C)C[C@@H]2Oc3ccc(NS(=O)(=O)c4c(C)noc4C)cc3C(=O)N([C@H](C)CO)C[C@@H]2C)cc1 | inactive: 1.01
25 | C[C@@H]1CCCCO[C@@H](CN(C)C(=O)Nc2ccccc2)[C@H](C)CN([C@@H](C)CO)C(=O)c2cc(NS(=O)(=O)c3ccc(Cl)cc3)ccc2O1 | inactive: 1
26 | Cc1noc(C)c1NC(=O)N(C)C[C@H]1Oc2c(NS(=O)(=O)c3cn(C)cn3)cccc2C(=O)N([C@H](C)CO)C[C@@H]1C | inactive: 0.997
27 | C[C@@H]1CN([C@@H](C)CO)C(=O)Cc2cc(NS(=O)(=O)c3ccccc3)ccc2O[C@@H]1CN(C)S(C)(=O)=O | inactive: 0.99
28 | C[C@@H]1CN([C@@H](C)CO)C(=O)Cc2cc(NS(=O)(=O)c3ccc(F)cc3)ccc2O[C@H]1CN(C)Cc1ccc(-c2ccccc2)cc1 | inactive: 0.949
29 | C[C@@H]1CCCCO[C@H](CN(C)S(=O)(=O)c2ccc(Cl)cc2)[C@H](C)CN([C@@H](C)CO)C(=O)c2cc(NC(=O)Nc3ccc(C(F)(F)F)cc3)ccc2O1 | inactive: 1.04
30 | O=C(C1=C[C@H](c2ccc(C(F)(F)F)cc2)C[C@H](OCc2ccc(CO)cc2)O1)N1CCN(Cc2ccc3c(c2)OCO3)CC1 | inactive: 0.934
31 | O=C(C[C@@H]1CC[C@@H]2[C@H](COC[C@@H](O)CN2S(=O)(=O)c2ccc(F)cc2)O1)NCc1ccc(Cl)c(Cl)c1 | inactive: 0.997
32 | Cc1cc(C(=O)Nc2cccc3c2O[C@H](CN(C)Cc2ccccc2)[C@@H](C)CN([C@@H](C)CO)C3=O)n(C)n1 | inactive: 1.01
33 | C[C@@H]1CN([C@H](C)CO)C(=O)c2cc(NS(=O)(=O)c3cccs3)ccc2O[C@@H]1CN(C)C(=O)Nc1cccc2ccccc12 | inactive: 1.01
34 | COc1ccccc1-c1cnc2c(c1)C(=O)N([C@H](C)CO)C[C@@H](C)[C@@H](CN(C)C(=O)c1cccnc1)O2 | inactive: 1.01
35 | C[C@H](CO)N1C[C@H](C)[C@@H](CN(C)Cc2ccccc2)Oc2c(NC(=O)c3cnccn3)cccc2C1=O | inactive: 1.03
36 | C[C@H]1CN([C@@H](C)CO)C(=O)c2cc(NS(=O)(=O)c3cn(C)cn3)ccc2O[C@H]1CN(C)CC1CCCCC1 | inactive: 1.01
37 | C[C@@H]1CN([C@H](C)CO)C(=O)c2cc(/C=C/c3ccccc3)cnc2O[C@H]1CN(C)S(=O)(=O)c1cn(C)cn1 | inactive: 1.05
38 | COc1ccc(CN(C)C[C@@H]2Oc3ccc(NC(=O)CCCCCC(=O)Nc4ccccc4N)cc3CC(=O)N([C@@H](C)CO)C[C@@H]2C)cc1 | inactive: 0.941
39 | Cc1ccc(S(=O)(=O)Nc2ccc3c(c2)C(=O)N([C@H](C)CO)C[C@H](C)[C@@H](CN(C)S(=O)(=O)c2ccc(F)cc2)OCCCC[C@@H](C)O3)cc1 | inactive: 1.02
40 | O=C(N/N=C/[C@H](O)[C@@H](O)[C@@H](O)[C@H](O)CO)c1ccccn1 | inactive: 1

Row | Compound | relative growth
41 | C[C@@H]1CN([C@@H](C)CO)C(=O)CCCn2cc(nn2)CO[C@@H]1CN(C)S(=O)(=O)c1cccc(C#N)c1 | inactive: 0.986
42 | CCCC(=O)NCc1nccc(N(C)C)n1 | inactive: 0.994
43 | Cc1noc(C)c1S(=O)(=O)N(C)C[C@H]1Oc2ccc(NS(=O)(=O)c3ccc(F)cc3)cc2C(=O)N([C@@H](C)CO)C[C@H]1C | inactive: 0.996
44 | C[C@@H]1CCCCO[C@H](CN(C)S(=O)(=O)c2ccc(Cl)cc2)[C@H](C)CN([C@@H](C)CO)C(=O)c2cc(NC(=O)CCC(F)(F)F)ccc2O1 | inactive: 1.03
45 | C[C@H]1CN([C@@H](C)CO)C(=O)c2c(c3ccccc3n2C)-c2ccccc2CO[C@@H]1CN(C)Cc1ccc2c(c1)OCCN2C | inactive: 0.992
46 | C1CC(N2CCNCC2)C1 | inactive: 1.01
47 | COc1ccc2c3c(n(c2c1)C)[C@H](CO)N(C[C@]13CN(C1)C(=O)C1CC1)C(=O)CN1CCOCC1 | inactive: 1.01
48 | C[C@@H]1CN([C@H](C)CO)S(=O)(=O)c2ccc(C#Cc3ccccc3)cc2O[C@H]1CN(C)S(C)(=O)=O | inactive: 1.04
49 | CN(C)CC(=O)N1CC(=O)N2[C@H](CO)[C@H](c3ccc(C#Cc4cccnc4)cc3)[C@H]2C1 | inactive: 0.993
50 | CO[C@H]1CN(C)C(=O)c2cc(NC(=O)Nc3cccc(F)c3)ccc2OC[C@H](C)N(C(=O)Nc2c(C)noc2C)C[C@@H]1C | inactive: 1.03
51 | Cc1[nH]c2ccccc2c1C(=O)CSc1ccc(Cl)cc1 | inactive: 1.02
52 | Cc1ccc(/C=N/Nc2cnnc(=O)[nH]2)o1 | inactive: 0.975
53 | C[C@H](CO)N1C[C@H](C)[C@@H](CN(C)Cc2ccc3c(c2)OCCN3C)OCc2ccccc2-c2c(n(C)c3ccccc23)C1=O | inactive: 0.861
54 | Cc1noc(C)c1NC(=O)Nc1ccc2c(c1)C(=O)N([C@@H](C)CO)C[C@H](C)[C@H](CN(C)C(=O)Nc1ccc(C(F)(F)F)cc1)OCCCC[C@H](C)O2 | inactive: 1
55 | C[C@@H]1CN([C@@H](C)CO)C(=O)CCCn2nncc2CO[C@H]1CN(C)S(=O)(=O)c1ccc(Oc2ccccc2)nc1 | inactive: 1.01
56 | COc1ccccc1NC(=O)N(C)C[C@@H]1OCc2ccccc2-c2c(n(C)c3ccccc23)C(=O)N([C@H](C)CO)C[C@H]1C | inactive: 0.993
57 | CNC[C@H]1Oc2cc(C#CCN(C)C)ccc2S(=O)(=O)N([C@H](C)CO)C[C@H]1C | inactive: 1
58 | CN(C)S(=O)(=O)c1ccc(CN)cc1 | inactive: 1.02
59 | COc1cccc(S(=O)(=O)N(C)C[C@H]2Oc3cc(C4=CCCC4)ccc3S(=O)(=O)N([C@@H](C)CO)C[C@H]2C)c1 | inactive: 1.04
60 | N=C(N)Nc1nc(CSCC/C(N)=N\S(N)(=O)=O)cs1 | inactive: 0.911
